# Assay results reported in PMC4336329 (PLoS ONE, 2015).
# Hit rate of the full screen: of about 310,000 compounds, about 14,000 (4.5%) showed an effect of 50% or more. Effects have a minus sign here. The list shows a part of the results.
# Target: human ether-à-go-go-related gene (hERG) potassium channel (human, UniProt Q12809)
# Assay: primary screen, population patch clamp on CHO cells stably expressing hERG
# 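Note: peak tail current of the secondary pulse compared with the same well before compound.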
# Sequence of human ether-à-go-go-related gene (hERG) potassium channel (Q12809 whole entry, looked up): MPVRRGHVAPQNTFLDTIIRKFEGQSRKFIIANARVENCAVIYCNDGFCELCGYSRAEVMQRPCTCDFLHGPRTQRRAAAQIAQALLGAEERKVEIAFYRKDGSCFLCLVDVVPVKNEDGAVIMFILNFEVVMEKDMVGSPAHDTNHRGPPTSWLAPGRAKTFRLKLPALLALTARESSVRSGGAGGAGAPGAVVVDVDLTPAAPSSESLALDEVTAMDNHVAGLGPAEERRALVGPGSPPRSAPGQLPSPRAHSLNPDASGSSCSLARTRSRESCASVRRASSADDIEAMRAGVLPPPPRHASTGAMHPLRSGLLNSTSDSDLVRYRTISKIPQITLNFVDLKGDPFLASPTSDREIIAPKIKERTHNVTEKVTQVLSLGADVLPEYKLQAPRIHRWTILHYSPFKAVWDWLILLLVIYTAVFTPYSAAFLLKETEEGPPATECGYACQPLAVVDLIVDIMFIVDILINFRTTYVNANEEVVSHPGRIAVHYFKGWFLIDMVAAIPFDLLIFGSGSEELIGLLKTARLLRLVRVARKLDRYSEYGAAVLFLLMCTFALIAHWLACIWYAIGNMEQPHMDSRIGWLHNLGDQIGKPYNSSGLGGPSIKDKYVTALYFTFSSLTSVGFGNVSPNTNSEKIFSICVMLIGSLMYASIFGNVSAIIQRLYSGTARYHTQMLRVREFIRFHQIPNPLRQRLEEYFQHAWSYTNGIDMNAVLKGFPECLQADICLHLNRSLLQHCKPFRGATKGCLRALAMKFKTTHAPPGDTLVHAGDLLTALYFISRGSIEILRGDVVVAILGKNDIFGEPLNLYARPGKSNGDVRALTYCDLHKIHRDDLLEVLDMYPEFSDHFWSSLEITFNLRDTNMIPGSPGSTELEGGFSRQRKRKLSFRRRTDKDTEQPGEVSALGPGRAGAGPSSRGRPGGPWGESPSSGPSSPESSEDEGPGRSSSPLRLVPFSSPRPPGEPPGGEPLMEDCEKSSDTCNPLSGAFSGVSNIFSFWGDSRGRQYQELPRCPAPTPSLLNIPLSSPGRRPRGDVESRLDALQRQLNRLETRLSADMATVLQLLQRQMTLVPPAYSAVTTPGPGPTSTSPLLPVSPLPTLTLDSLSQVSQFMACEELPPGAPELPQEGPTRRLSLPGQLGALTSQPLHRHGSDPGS
row,SMILES,"hERG current change (%, negative = inhibition) at 10uM [%]"
1,CCc1ccccc1NC(=S)N(CCCN1CCOCC1)Cc1ccccn1,-25.8
2,CN(CC(=O)Nc1ccccc1Cl)C(=O)C1CSC2(C)CCC(=O)N12 (stereo not drawn),-5.11
3,O=c1[nH]c(C(Cl)(Cl)Cl)nc2ccc3ccccc3c12,12.8
4,O=C(NCCN1CCOCC1)c1sc2cc(Cl)ccc2c1Cl,-10.3
5,CCCn1ccnc1SCC(=O)Nc1c(C)n(C)n(-c2ccccc2)c1=O,-13.3
6,CCOC(=O)Nc1cccc(OCC(=O)Nc2ccc(OC)cc2OC)c1,2.2
7,CCOCCCn1c(C)nc2c[n+](CC(=O)c3ccc4ccccc4c3)cc(Br)c21.[Br-],-0.936
8,Cc1cccc(Sc2ccc([N+](=O)[O-])cc2[N+](=O)[O-])n1,16.1
9,CCOC(=O)c1sc(=NC(=O)c2cccc(OC)c2)n(C)c1C,-9.59
10,CC(=O)c1cccc(NC(=S)NC(=O)Cc2ccc(Cl)cc2)c1,21.2
11,CCCCOC(=O)/C=C/c1ccc(OC(=O)OC)c(OC(=O)OC)c1,2.74
12,O=C(NCCCN1CCC(Cc2ccccc2)CC1)c1ccc2nc(N3CCOCC3)sc2c1,-66.2
13,CCCCn1nnnc1SCC(=O)Nc1cccc(C)c1,-6.44
14,CCN(CC(=O)NC(C)(C)C)C(=O)c1ccc2c(c1)S(=O)(=O)c1ccccc1C2=O,11.2
15,CCCN=C1N/C(=C\c2ccco2)C(=O)N1c1ccccc1,11
16,O=C(O)c1ccc(S(=O)(=O)c2ccccc2C(=O)O)c([N+](=O)[O-])c1,27.3
17,Cl.O=C1CN=C(Nc2cccc(C(F)(F)F)c2)N1C1CCCC1,2.27
18,O=C(NCC1CCCO1)C1CCN(C2CCN(Cc3cccs3)CC2)CC1 (stereo not drawn),-64.2
19,c1ccc(N2CCN(Cc3ccnc4ccccc34)CC2)cc1,-0.764
20,C/C(=N\NC(=O)c1ccccc1)C1C2C=CC(C2)C1(C)C (stereo not drawn),7.67
21,CCc1ccc(S(=O)(=O)Nc2ccc(-c3nc4cccnc4s3)cc2)s1,8.24
22,CCO.CCSc1nc2ccccc2c(=O)n1-c1c(C)n(C)n(-c2ccccc2)c1=O,5.74
23,CCCCCNc1nc(-c2ccccc2)cs1,9.41

row,SMILES,"hERG current change (%, negative = inhibition) at 10uM [%]"
1,O=C(NNC(=O)c1cc(-c2ccccc2)n(-c2ccccc2)n1)c1cccc([N+](=O)[O-])c1,-34.2
2,O=C(CSc1n[nH]c(=O)[nH]c1=O)c1ccc(Cl)cc1Cl,16.1
3,CC(C)(C)NC(=O)[C@@H]1C[C@@H]2CCCC[C@@H]2CN1C[C@@H](O)[C@H](Cc1ccccc1)NC(=O)[C@H](CC(N)=O)NC(=O)c1ccc2ccccc2n1,-9.59
4,CCc1nc(SCC(=O)Nc2nnc(CC)s2)c2c(C)c(C)sc2n1,8.99
5,CC(C)C(O)(C#CCN1CCCCCC1)c1ccccc1.Cl (stereo not drawn),-33.1
6,Cc1ccc(-n2nc3c(c2NC(=O)c2ccco2)CS(=O)(=O)C3)c(C)c1,-11.9
7,COc1ccc(C(=O)CSc2nnc(Cc3ccccc3)o2)cc1,-4.54
8,C=CCNC(=O)c1ccccc1NS(=O)(=O)c1ccccc1,-10
9,Cc1ccc(CN2[C@@H]3c4ccccc4C[C@@H]3OCCS2(=O)=O)cc1,3.84
10,O=C(N/N=C/c1ccco1)c1cc([N+](=O)[O-])cc([N+](=O)[O-])c1,6.85
11,O=Cc1ccc(C(=O)OCC(=O)Nc2ccc(F)cc2F)cc1,21.5
12,CC(C(=O)Nc1ccc(Cl)cc1)N(C)Cc1cccs1 (stereo not drawn),-15
13,Cc1nn(-c2ccccc2)c(C)c1/C=C1\C(=O)N(C)C(=S)N1C,-11.2
14,CCC(C(=O)O)n1nnc(-c2ccc(OCc3ccccc3)c(OC)c2)n1 (stereo not drawn),14.6
15,CCCCNC(=S)N/N=C1\CCCCc2ccccc21,-64.4
16,CC(=O)NC(Cc1ccc(N(CCCl)CCCl)cc1)C(=O)NCC(=O)NCC(=O)O (stereo not drawn),31.5
17,Nc1ccc2nc(SCc3ccc([N+](=O)[O-])cc3)sc2c1,-3.42
18,O=C(COC(=O)/C=C/c1ccc(C(F)(F)F)cc1)NC1CC1,2.16
19,CCOC(=O)c1c(S(=O)(=O)NCC(=O)N2CCN(c3ccccc3OC)CC2)c(C)n(C)c1C,1.37
20,CC(C)C(=O)Nc1ccc(C(=O)NNC(=O)c2cccs2)cc1,6.39
21,CCn1c(SCC(=O)Nc2nc(C)c(C)s2)nnc1-c1cccs1,-73.4
22,O=C(COC(=O)c1c[nH]c(=O)[nH]c1=O)Nc1cccc([N+](=O)[O-])c1,1.39
23,O/N=C1\CC2(Cc3nonc31)OCCO2,16.6

row,SMILES,"hERG current change (%, negative = inhibition) at 10uM [%]"
1,CC1CCCCN1C(=O)C1COc2ccccc2O1 (stereo not drawn),13.5
2,O=Cc1c(N2CCN(c3cccc(Cl)c3)CC2)nc2ccccn2c1=O,-42.4
3,Cc1onc(-c2ccccc2)c1C(=O)N/N=C/c1ccc(Br)cc1,9.02
4,O=C(Nc1ccc2c(c1)OCO2)C1CCCN(S(=O)(=O)c2cccs2)C1 (stereo not drawn),10.7
5,O=C1CN(C(=O)c2ccc(Cl)nc2)c2ccccc2N1,21.3
6,CN1C(c2ccccc2)=NO[C@]1(C)c1ccccc1,-1.7
7,Cc1cc(N2CCN(c3ccccc3)CC2)nc(-c2ccccc2O)n1,6.15
8,NS(=O)(=O)c1ccc(NC(=O)CSc2nnc(C3CC3)n2C2CC2)cc1,22
9,CCc1ccc(CCC(=O)Nc2sc3c(c2C#N)CCCC3)o1,6.21
10,COc1cc2nc(SCc3c(C)noc3C)n(CCC3=CCCCC3)c(=O)c2cc1OC,16
11,CCOc1cc(Cl)c(NC(=O)c2ccco2)cc1OCC,19.9
12,CCOc1ccc(N2C(=O)c3ccccc3C2=O)cc1,13.7
13,c1ccc(Nc2ncnc3sccc23)cc1,10.4
14,CC(C)CC(=O)Nc1ccc(C(=O)Cn2nc(C(=O)O)c3ccccc3c2=O)cc1,-26
15,CN(C)c1ccc(CN(C(=O)COc2ccccc2)C2CCS(=O)(=O)C2)cc1 (stereo not drawn),-10.9
16,COc1cc(NC(=O)C2CCN(S(=O)(=O)c3cccc4nonc34)CC2)cc(OC)c1,9.67
17,CCOC(=O)C1CCN(C(=O)CC(NS(=O)(=O)c2ccc(OC)cc2)C(C)C)CC1 (stereo not drawn),-8.36
18,Cc1ccc(S(=O)(=O)N2CCCC(C(=O)NCCC3=CCCCC3)C2)cc1 (stereo not drawn),-4.03
19,O=C(Nc1cccc2ncccc12)c1ccco1,27
20,N/C(=N\OC(=O)c1ccc(F)cc1)c1ccc(Br)cc1,15.4
21,CCOC(=O)c1cc([N+](=O)[O-])sc1NC(=O)c1ccc(S(=O)(=O)N2CC3(C)CC2CC(C)(C)C3)cc1 (stereo not drawn),0.391
22,Cc1cccc(OCC(O)Cn2c(=N)n(Cc3ccccc3)c3ccccc32)c1.Cl (stereo not drawn),-71
23,O=C(Cn1nc(-c2ccccc2)c2ccccc2c1=O)NCCO,10

row,SMILES,"hERG current change (%, negative = inhibition) at 10uM [%]"
1,CCC(CO)N=CC1=C(O)C(C(=O)c2ccccc2)CCC1=O (stereo not drawn),4.2
2,COc1c(N2CCN(C(=S)Nc3ccccc3F)C(C)C2)c(F)cc2c(=O)c(C(=O)O)cn(C3CC3)c12 (stereo not drawn),-8.57
3,CS(=O)(=O)N1N=C(c2ccco2)CC1c1ccco1 (stereo not drawn),1.13
4,Nc1nnc(Cc2cccc(Br)c2)s1,3.51
5,Cc1ccc[n+](CC(=O)c2ccc(Br)cc2)c1.[Br-],-4.27
6,CCCCc1nc2cc(C(=O)NCCc3cnn(C)c3)ccc2o1,4.17
7,Cc1cccc(-c2nc(CS(=O)CC(=O)NC3CCCCC3)c(C)o2)c1 (stereo not drawn),-3.93
8,O=C(/C=C/c1ccc(Cl)cc1Cl)c1nc2ccccc2[nH]1,27.8
9,O=C(CCCOc1ccccc1)N1CCN(c2ccccn2)CC1,-8.9
10,CCOc1ccc(CCNC(=O)CN2C(=O)c3cccnc3Oc3ccc(Cl)cc32)cc1,-17.7
11,Cc1cnc(C(=O)Nc2ccc3c(c2)CCC3)cn1,6.1
12,Cc1cccc(C)c1OCC(O)CNC(C)(C)C.Cl (stereo not drawn),10.4
13,O=[N+]([O-])c1ccc(N2CCCCC2)cc1N1CCOCC1,-11.3
14,CC(Oc1ccc(Cl)cc1Cl)C(=O)NNC(=O)C(=O)N1CCCC1 (stereo not drawn),2.52
15,Cc1ccc(C)c(NC(=O)Nn2cnnc2)c1,7.96
16,O/N=C1\CCCc2nnc3c(c21)CCCC3,15.8
17,Br.Cn1c(=N)n(CC(=O)C(C)(C)C)c2ccccc21,-31
18,Cc1c(C(=O)CN2CCCC(C)(C)C2)c2ccccc2n1C,1.31
19,O=C(Nc1ccc2ncccc2c1)c1ccccc1,10.4
20,CC1(C)C/C(=N/Nc2ccc([N+](=O)[O-])cc2[N+](=O)[O-])C(C)(C)O1,6.56
21,Cc1cccc(C(=O)N2CCN(c3ccccn3)CC2)c1,5.4
